In PMC4559378:
These are yes or no findings as the source states them, for the method shown. For part of these data: In cells and extracts the contact can be indirect. Some binding calls cover weakened binding; strength is not graded here.

Protein sequences, listed by entry. Tags and fused reporters are not part of them. Lines headed by an entry give the natural chain unless they say otherwise; changes in a name come on top. Chains listed by the source or under a name are the forms on record and can include a tag or linker. Residues count along the entry.
UniProt P35637: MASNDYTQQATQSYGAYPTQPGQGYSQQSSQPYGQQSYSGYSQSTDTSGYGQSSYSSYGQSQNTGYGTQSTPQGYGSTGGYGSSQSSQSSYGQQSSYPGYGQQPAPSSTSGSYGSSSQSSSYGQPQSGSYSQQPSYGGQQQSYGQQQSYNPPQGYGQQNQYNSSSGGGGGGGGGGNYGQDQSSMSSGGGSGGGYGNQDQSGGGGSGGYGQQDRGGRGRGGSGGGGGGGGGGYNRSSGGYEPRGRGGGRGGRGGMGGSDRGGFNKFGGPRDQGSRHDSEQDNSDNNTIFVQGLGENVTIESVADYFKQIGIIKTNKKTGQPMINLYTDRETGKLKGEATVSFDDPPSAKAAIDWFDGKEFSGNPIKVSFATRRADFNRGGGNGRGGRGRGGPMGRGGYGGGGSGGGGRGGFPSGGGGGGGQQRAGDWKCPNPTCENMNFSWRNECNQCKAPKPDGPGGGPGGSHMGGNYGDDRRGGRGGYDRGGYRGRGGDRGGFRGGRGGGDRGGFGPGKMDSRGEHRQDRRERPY
GST-tagged N-terminal fragment of Wt-FUS containing 370 amino acid residues: residues 1-370 of P35637
GST-tagged N-terminal fragment of Wt-FUS containing 285 amino acid residues: residues 1-285 of P35637
GST-tagged carboxyl terminal fragment (aa371-526) of FUS: residues 371-526 of P35637
UniProt P10809, residues 27-573: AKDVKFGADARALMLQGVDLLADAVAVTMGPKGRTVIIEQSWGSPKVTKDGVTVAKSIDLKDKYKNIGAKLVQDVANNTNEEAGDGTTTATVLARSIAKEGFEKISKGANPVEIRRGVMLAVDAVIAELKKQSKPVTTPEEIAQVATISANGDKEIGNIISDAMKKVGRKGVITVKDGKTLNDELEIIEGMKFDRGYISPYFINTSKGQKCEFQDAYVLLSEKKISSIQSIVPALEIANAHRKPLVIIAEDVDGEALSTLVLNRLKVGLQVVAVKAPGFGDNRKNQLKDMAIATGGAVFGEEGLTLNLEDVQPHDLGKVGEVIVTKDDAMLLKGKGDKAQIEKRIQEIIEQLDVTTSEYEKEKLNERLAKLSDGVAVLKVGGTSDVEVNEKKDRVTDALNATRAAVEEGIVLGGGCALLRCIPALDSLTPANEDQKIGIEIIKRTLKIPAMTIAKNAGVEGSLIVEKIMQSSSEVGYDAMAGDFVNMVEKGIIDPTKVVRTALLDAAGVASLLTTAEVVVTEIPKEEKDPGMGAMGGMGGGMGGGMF

Experiments:
[1] = molecular target: GST-tagged N-terminal fragment of Wt-FUS containing 285 amino acid residues (human) (UniProt P35637); test: pull-down; purified GST-FUS proteins incubated with purified HSP60-His in TNE buffer (10 mM Tris pH 8.0, 150 mM NaCl, 1 mM EDTA, 1% NP-40) on ice for 1 hour, then glutathione 4B Sepharose beads at 4°C for 3 hours; Western blot with anti-HSP60; also done after RNaseA treatment (50 ug/ml, 30 min, 37°C); both purified
[2] = molecular target: GST-tagged N-terminal fragment of Wt-FUS containing 370 amino acid residues (human) (UniProt P35637); test: as above
[3] = molecular target: GST-tagged carboxyl terminal fragment (aa371-526) of FUS (human) (UniProt P35637); test: as above
[4] = molecular target: GST-tagged full-length P525L-mutant FUS (human) (UniProt P35637); test: as above
[5] = molecular target: GST-tagged full-length Wt-FUS (human) (UniProt P35637); test: as above
[6] = molecular target: P525L-mutant FUS as a 6XHis-Myc tagged protein (human) (UniProt P35637); test: co-IP; cytosolic fraction of HEK293 cells expressing 6xMyc tagged FUS; immunoprecipitation with an anti-Myc monoclonal antibody; Western blot with anti-HSP60
[7] = molecular target: Wt-FUS tagged with 6xMyc tag (human) (UniProt P35637); test: as above
[8] = molecular target: P525L-mutant FUS as a 6XHis-Myc tagged protein (human) (UniProt P35637); test: co-IP; mitochondrial fraction of HEK293 cells expressing 6xMyc tagged FUS; immunoprecipitation with an anti-Myc monoclonal antibody; Western blot with anti-HSP60
[9] = molecular target: Wt-FUS tagged with 6xMyc tag (human) (UniProt P35637); test: as above
[10] = molecular target: P525L-mutant FUS tagged with GFP (human) (UniProt P35637); test: co-IP; lysates of transfected HEK293 (HEK293T) cells 48 h post-transfection; immunoprecipitation with anti-GFP and protein A-agarose at 4°C; Western blot with anti-HSP60
[11] = molecular target: Wt-FUS tagged with GFP (human) (UniProt P35637); test: as above
[12] = molecular target: P525L-mutant FUS as a 6XHis-Myc tagged protein (human) (UniProt P35637); test: cross-linking; live stable cells, 16 h tetracycline induction, 1% formaldehyde (PFA) for 10 min; FUS purified under denaturing conditions (6 M guanidine HCl) on Ni-NTA, then anti-myc immunoprecipitation and Ni-NTA again; Western blot with anti-HSP60, or anti-FUS after further anti-HSP60 immunoaffinity …

Substance	binding [1]	binding [2]	binding [3]	binding [4]	binding [5]	binding [6]	binding [7]	binding [8]	binding [9]	binding [10]	binding [11]	binding [12]
His-tagged HSP60 protein (from UniProt P10809 27-573)	no binding	no binding	binds	binds	binds							
HSP60, endogenous in HEK293 cells (from UniProt P10809 27-573)						binds	binds	binds	binds	binds	binds	binds
